Assay results published in PubChem BioAssay (NCI).
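Dose response: 5 concentrations. Exposure: 48 h. Format: 96-well plates. Endpoint: linear interpolation; highest concentration if not reached. GI50 marks 50% less growth.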 The source holds more than one record for some entries. The list is limited to them. An entry can have further records. For part of these data: The values listed for one entry are repeats (runs, samples, wells, individuals or studies). Records carry a tag for their origin. Letters count within one entry.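 TGI denotes the concentration required for complete inhibition of growth.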 For part of these data: A record mostly stands for its own series of concentrations, which the source does not state; a value can be the end of its range.

What was measured:
Experiment in all cases: DTP human tumour cell line panel, 48 h
[1] = tested on: HCC-2998 colon
[2] = tested on: DU-145 prostate
[3] = tested on: NCI/ADR-RES ovarian
[4] = tested on: HT29 colon
[5] = tested on: KM12 colon
[6] = tested on: NCI-H226 lung
[7] = tested on: OVCAR-8 ovarian
[8] = tested on: CAKI-1 renal
[9] = tested on: SK-OV-3 ovarian
[10] = tested on: HL-60(TB) leukemia
[11] = tested on: A498 renal
[12] = tested on: MOLT-4 leukemia
[13] = tested on: SNB-19 CNS
[14] = tested on: HCT-15 colon
[15] = tested on: U251 CNS
[16] = tested on: UO-31 renal
[17] = tested on: UACC-257 melanoma
[18] = tested on: KM20L2 colon
[19] = tested on: CCRF-CEM leukemia
[20] = tested on: OVCAR-3 ovarian
[21] = tested on: DLD-1 colon
[22] = tested on: EKVX NSCLC
[23] = tested on: NCI-H460 lung
[24] = tested on: SF-295 CNS
[25] = tested on: SF-268 CNS
[26] = tested on: 786-0 renal
[27] = tested on: OVCAR-5 ovarian
[28] = tested on: SNB-75 CNS
[29] = tested on: A549 NSCLC
[30] = tested on: LXFL 529 NSCLC
[31] = tested on: HOP-62 NSCLC
[32] = tested on: LOX IMVI melanoma
[33] = tested on: SF-539 CNS
[34] = tested on: IGROV1 ovarian
[35] = tested on: K-562 leukemia
[36] = tested on: SW-620 colon
[37] = tested on: NCI-H23 lung

SMILES: COc1ccc2c(c1)C(=O)CCc1cc(OC)c(OC)c(OC)c1-2
- TGI [1]: 493 nM and > 100 µM
- TGI [2]: 237 nM and > 100 µM
- TGI [3]: 51.5 nM and > 100 µM
- TGI [4]: 180 nM and 12.1 nM
- TGI [5]: 129 nM and > 100 µM
- TGI [6]: 65.9 nM and > 100 µM
- TGI [7]: 209 nM and > 100 µM

SMILES: C=CC(=O)N1CCC(Oc2cc3c(Nc4ccc(Cl)c(Cl)c4F)ncnc3cc2OC)CC1
- GI50 [8]: < 10 nM [sample A, mean of 2 tests] and 213 nM [sample B, mean of 2 tests]
- GI50 [2]: 61.4 nM [sample A, mean of 2 tests] and 906 nM [sample B, mean of 2 tests]
- TGI [9]: < 10 nM [sample A, 1 test] and 181 nM [sample B, mean of 2 tests]

SMILES: N[C@H](C(=O)O)[C@@H]1CC(Cl)=NO1
- TGI [10]: 69.2 µM and > 1 mM

SMILES: COc1ccc(C2=C[C@]3(O)CCCN3C[C@@H]2c2ccc(OC)c(OC)c2)cc1
- TGI [11]: < 0.1 nM and 662 nM
- TGI [12]: 0.315 nM and 19.4 nM
- TGI [13]: 1.01 nM and > 100 µM
- TGI [14]: 1.59 nM and 46.5 µM
- TGI [15]: 0.253 nM and 1.31 µM
- TGI [16]: < 0.1 nM and 132 nM
- TGI [17]: 1.69 nM and 123 nM
- TGI [18]: 0.351 nM and 1.21 µM
- TGI [19]: 0.257 nM and 517 nM
- TGI [20]: < 0.1 nM and 351 nM
- TGI [21]: 1.72 nM and 140 nM
- TGI [22]: 11.9 nM and 10.9 µM
- TGI [23]: < 0.1 nM and 24.5 nM
- TGI [9]: 0.571 nM and 260 nM
- TGI [24]: 0.501 nM and 24.4 nM
- TGI [25]: 0.122 nM and 23.1 nM
- TGI [26]: < 0.1 nM and 115 nM
- TGI [27]: 0.603 nM and 116 nM
- TGI [28]: 0.682 nM and 23 nM
- TGI [4]: 0.288 nM and 23.6 nM
- TGI [29]: 1.39 nM and 319 nM
- TGI [30]: < 0.1 nM and 1.45 µM
- TGI [31]: < 0.1 nM and 235 nM
- TGI [32]: 0.138 nM and 13.2 nM
- TGI [5]: 0.761 nM and 18.5 nM
- TGI [33]: < 0.1 nM and 1.11 µM
- TGI [34]: 0.159 nM and 474 nM
- TGI [7]: 0.196 nM and 184 nM
- TGI [35]: 199 nM and 22.3 µM

SMILES: CCOC(=O)Nc1cc2c(c(N)n1)N=C(c1ccc(OC)cc1)CN2
- TGI [12]: 0.455 nM and 13 µM
- TGI [16]: 379 nM and > 100 µM
- TGI [8]: 16.3 nM and > 100 µM
- TGI [36]: 386 nM and > 100 µM
- TGI [37]: 929 nM and 96.2 µM
